Read-outs that look alike come from different tables or passages of the source.
Target: Syk catalytic domain (aa 356-635 with a C-terminal His-tag) (Homo sapiens, UniProt P43405)
Assay: In vitro Syk kinase activity by trFRET (Syk catalytic domain)
[1] = Syk IC50, Syk catalytic domain (aa 356-635), trFRET, 0.001 mM ATP
[2] = Syk catalytic domain (aa 356-635), trFRET, 0.001 mM ATP, read-out: Syk IC50

Row | IC50 [1] | SMILES | also measured
1 | < 100 nM | CC1(C)C(=O)Nc2cc(Nc3nc(NC4CC4)c4occc4n3)ccc21 [Example #11, 6-(4-(Cyclopropylamino)furo[3,2-d]pyrimidin-2-ylamino)-3,3-dimethylindolin-2-one] | –
2 | < 100 nM | CC1(C)C(=O)Nc2cc(Nc3nc(NC4CCC4)c4occc4n3)ccc21 [B.5.108] | –
3 | – | CC1(CN)CCN(c2nc(Nc3ccc4c(c3)NC(=O)C(C)(C)O4)nc3ccoc23)CC1 [C.1.33] | IC50 (Syk IC50, class symbols A-D): < 100 nM
4 | 100 to 1000 nM | O=C1CCc2cc(Nc3nc(NC4CC4)c4occc4n3)ccc21 [B.5.21] | –
5 | 100 to 1000 nM | Cc1n[nH]c2cc(Nc3nc(NC4CC(F)(F)C4)c4occc4n3)ccc12 [J.1.5] | –
6 | 100 to 1000 nM | CC1(C)Oc2ccc(Nc3nc(N4CCCC(N)C(O)C4)c4occc4n3)cc2NC1=O (stereo not shown) [R.1, 6-(4-(4-Amino-3-hydroxyazepan-1-yl)furo[3,2-d]pyrimidin-2-ylamino)-2,2-dimethyl-2H-benzo[b][1,4]oxazin-3(4H)-one] | –
7 | 100 to 1000 nM | O=C1Nc2cc(Nc3nc(N4CCC(CNCC(F)F)CC4)c4occc4n3)ccc2OC1(F)F [B.5.88] | –
8 | < 100 nM | O=c1ccc2ccc(Nc3nc(NC4CC4)c4occc4n3)cc2o1 [B.5.52] | –
9 | < 100 nM | CCCNc1nc(Nc2ccc3c(c2)NC(=O)C3(C)C)nc2ccoc12 [B.5.81] | –
10 | < 100 nM | Clc1cc(Nc2nc(NC3CCC3)c3occc3n2)ccc1N1CCOCC1 [B.5.2] | –
11 | – | CNCC1CCN(c2nc(Nc3ccc(S(=O)(=O)NCCCOC)cc3)nc3ccoc23)CC1 [C.1.56] | IC50 (Syk IC50, class symbols A-D): < 100 nM
12 | 100 to 1000 nM | COCCCNS(=O)(=O)c1ccc(Nc2nc(NC3CC3)c3occc3n2)cc1 [B.5.10] | –
13 | 100 to 1000 nM | CC(=O)N(C)c1ccc(Nc2nc(NC3CC3)c3occc3n2)cc1 [B.5.4] | –
14 | < 100 nM | C[C@H]1Cc2ccc(Nc3nc(NC4CC4)c4occc4n3)cc2NC1=O [(S)-7-(4-(cyclopropylamino)furo[3,2-d]pyrimidin-2-ylamino)-3-methyl-3,4-dihydroquinolin-2(1H)-one] | –
15 | – | CNCC1CCN(c2nc(Nc3ccc4cn[nH]c4c3)nc3ccoc23)CC1 [C.1.23] | IC50 (Syk IC50, class symbols A-D): < 100 nM
16 | – | CC1(C)Oc2ccc(Nc3nc(N4CCc5ccccc5C4)c4occc4n3)cc2NC1=O [B.5.16] | IC50 [2]: 100 to 1000 nM
17 | – | Cc1n[nH]c2cc(Nc3nc(NC4CCc5cn[nH]c5C4)c4occc4n3)ccc12 (stereo not shown) [AK.1.1] | IC50 (Syk IC50, class symbols A-D): 100 to 1000 nM
18 | – | COCCCNS(=O)(=O)c1ccc(Nc2nc(N3CCC(CN)CC3)c3occc3n2)cc1 [C.1.17] | IC50 (Syk IC50, class symbols A-D): < 100 nM
19 | – | CC1(C)Oc2ccc(Nc3nc(N4CCC(CNCCC(F)(F)F)CC4)c4occc4n3)cc2NC1=O [B.5.98] | IC50 [2]: 100 to 1000 nM
20 | – | NCC1CCN(c2nc(Nc3ccc4c(c3)NC(=O)CC4)nc3ccoc23)CC1 [C.1.61] | IC50 (Syk IC50, class symbols A-D): < 100 nM

Row | IC50 [1] | SMILES | also measured
21 | – | CC1(C)Oc2ccc(Nc3nc(N4CCC(C(N)=O)C4)c4occc4n3)cc2NC1=O (stereo not shown) [B.5.94] | IC50 [2]: 100 to 1000 nM
22 | – | CC1(C)Oc2ccc(Nc3nc(NCC4CC4)c4occc4n3)cc2NC1=O [B.5.33] | IC50 [2]: 100 to 1000 nM
23 | < 100 nM | O=C(c1n[nH]c2cc(Nc3nc(NC4CC4)c4occc4n3)ccc12)N1CCOCC1 [J.1.14] | –
24 | – | CC1(C)C(=O)Nc2cc(Nc3nc(N4CCCC(N)CC4)c4occc4n3)ccc21 (stereo not shown) [C.1.34] | IC50 (Syk IC50, class symbols A-D): < 100 nM
25 | – | CC1(Nc2nc(Nc3ccc4c(c3)NC(=O)C(C)(C)O4)nc3ccoc23)CC1 [B.5.37] | IC50 [2]: 100 to 1000 nM
26 | – | NCC1CCN(c2nc(Nc3ccc4c(c3)CCC(=O)N4)nc3ccoc23)CC1 [C.1.5] | IC50 (Syk IC50, class symbols A-D): < 100 nM
27 | 100 to 1000 nM | Cc1n[nH]c2cc(Nc3nc(N(C)C4CC4)c4occc4n3)ccc12 [J.1.4] | –
28 | – | Cc1n[nH]c2cc(Nc3nc(OC4CCC4)c4occc4n3)ccc12 [C.1.81] | IC50 (Syk IC50, class symbols A-D): < 100 nM
29 | 100 to 1000 nM | CCCNc1nc(Nc2ccc3c(c2)NC(=O)CCC3)nc2ccoc12 [B.5.115] | –
30 | 100 to 1000 nM | CC(C)CNc1nc(Nc2ccc3c(c2)NC(=O)CCC3)nc2ccoc12 [B.5.118] | –
31 | 100 to 1000 nM | N#Cc1ccc(Nc2nc(NC3CC3)c3occc3n2)cc1 [B.5.130] | –
32 | 100 to 1000 nM | O=C(NCCO)c1n[nH]c2cc(Nc3nc(NC4CC4)c4occc4n3)ccc12 [J.1.15] | –
33 | 100 to 1000 nM | CC(C)n1ncc2cc(Nc3nc(NC4CC4)c4occc4n3)ccc21 [B.5.15] | –
34 | – | CC1(C)C(=O)Nc2cc(Nc3nc(N4CCC(O)(CN)CC4)c4occc4n3)ccc21 [Example #AM.1.3] | IC50 (Syk IC50, class symbols A-D): < 100 nM
35 | < 100 nM | CC1Cc2ccc(Nc3nc(N4CCC(CNCC(F)F)CC4)c4occc4n3)cc2NC1=O (stereo not shown) [B.5.92] | –
36 | < 100 nM | Cc1cc(=O)[nH]c2cc(Nc3nc(N4CCC(CNCC(F)F)CC4)c4occc4n3)ccc12 [B.5.83] | –
37 | < 100 nM | c1cc2nc(Nc3ccc4cn[nH]c4c3)nc(NC3CC3)c2o1 [Example #15, N^4-Cyclopropyl-N^2-(1H-indazol-6-yl)furo[3,2-d]pyrimidine-2,4-diamine] | –
38 | 100 to 1000 nM | O=c1[nH]c2ccc(Nc3nc(NC4CC4)c4occc4n3)cc2[nH]1 [B.5.20] | –
39 | 100 to 1000 nM | O=C1COc2ccc(Nc3nc(NC4CCC4)c4occc4n3)cc2N1 [B.5.103] | –
40 | > 10000 nM | NC(=O)[C@@H]1CCCN1c1nc(Nc2ccc(S(N)(=O)=O)cc2)nc2ccoc12 [B.2.3] | –

Row | IC50 [1] | SMILES | also measured
41 | 1000 to 10000 nM | CC(=O)N1CCN(c2nc(Nc3ccc(S(C)(=O)=O)cc3)nc3ccoc23)CC1 [B.3.1] | –
42 | < 100 nM | C[C@@H]1Cc2ccc(Nc3nc(NC4CC4)c4occc4n3)cc2NC1=O [(R)-7-(4-(cyclopropylamino)furo[3,2-d]pyrimidin-2-ylamino)-3-methyl-3,4-dihydroquinolin-2(1H)-one] | –
43 | 100 to 1000 nM | c1cc2nc(Nc3ccc(CN4CCOCC4)cc3)nc(NC3CC3)c2o1 [B.1.5] | –
44 | 100 to 1000 nM | CC(C)Oc1ccc(Nc2nc(NC3CC3)c3occc3n2)cc1Cl [B.5.47] | –
45 | 100 to 1000 nM | CC(=O)N(C)c1ccc(Nc2nc(N3CCc4ccccc4C3)c3occc3n2)cc1 [B.5.70] | –
46 | < 100 nM | CC1(C)Oc2ccc(Nc3nc(N4CCC(CN)(CCO)CC4)c4occc4n3)cc2NC1=O [Example #AD.1, 6-(4-(4-(Aminomethyl)-4-(2-hydroxyethyl)piperidin-1-yl)furo[3,2-d]pyrimidin-2-ylamino)-2,2-dimethyl-2H-benzo[b][1,4]oxazin-3(4H)-one] | –
47 | – | c1ccc2c(c1)CCN(c1nc(Nc3ccc4cn[nH]c4c3)nc3ccoc13)C2 [C.1.55] | IC50 (Syk IC50, class symbols A-D): 100 to 1000 nM
48 | – | CC1(C)Oc2ccc(Nc3nc(N4CCC5(CCNC5)CC4)c4occc4n3)cc2NC1=O [C.1.58] | IC50 (Syk IC50, class symbols A-D): < 100 nM
49 | – | CC1(C)Oc2ccc(Nc3nc(N4CCC(O)C4)c4occc4n3)cc2NC1=O (stereo not shown) [B.5.132] | IC50 [2]: 1000 to 10000 nM
50 | 100 to 1000 nM | CC(C)CNc1nc(Nc2ccc3c(c2)NC(=O)C(C)(C)C3)nc2ccoc12 [B.5.117] | –
51 | – | CC(=O)N(C)c1ccc(Nc2nc(N3CCC(CN)CC3)c3occc3n2)cc1 [C.1.7] | IC50 (Syk IC50, class symbols A-D): < 100 nM
52 | 100 to 1000 nM | c1nc2ccc(Nc3nc(NC4CC4)c4occc4n3)cc2o1 [B.5.54] | –
53 | – | COc1cc(Nc2nc(N3CCC4(CCNC4)CC3)c3occc3n2)ccc1N1CCOCC1 [C.1.45] | IC50 (Syk IC50, class symbols A-D): 100 to 1000 nM
54 | < 100 nM | O=C1Nc2cc(Nc3nc(NC4CC4)c4occc4n3)ccc2OC1(F)F [B.5.40] | –
55 | 100 to 1000 nM | Cc1ccc2cc(Nc3nc(NC4CC4)c4occc4n3)ccc2n1 [B.5.45] | –
56 | < 100 nM | O=C1CCCc2cc(Nc3nc(NC4CC4)c4occc4n3)ccc2N1 [B.5.56] | –
57 | 100 to 1000 nM | c1cc2nc(Nc3ccc4cnoc4c3)nc(NC3CC3)c2o1 [B.5.127] | –
58 | < 100 nM | Cc1n[nH]c2cc(Nc3nc(N4CCC(CN)C4)c4occc4n3)ccc12 (stereo not shown) [Example #AG.1, 4-(3-(Aminomethyl)pyrrolidin-1-yl)-N-(3-methyl-1H-indazol-6-yl)furo[3,2-d]pyrimidin-2-amine] | –
